# Results taken from the supplement of paper PMC8728848.
# The other results are listed elsewhere or left out.
# B1: LecB PA14 (Pseudomonas aeruginosa) (protein)
# chain: MATQGVFTLPANTQFGVTAFANSAGTQTVNVQVNNETVATFTGQSTNNAIIGSKVLNSGGGGKVQILVSVNGRSSDLVSAQVILANELNFALVGSEDSTDNDYNDAVVVINWPLG
# What was measured:
# Test in all cases: glycan array binding signal (z-score within array); higher = stronger binding
# Conditions in all cases: glycan notation: IUPAC condensed, linker removed
# [1] = molecular target: GlcNAc(b1-3)Gal(b1-4)GlcNAc(b1-3)Gal(b1-4)GlcNAc(b1-2)Man(a1-3)[GlcNAc(b1-3)Gal(b1-4)GlcNAc(b1-3)Gal(b1-4)GlcNAc(b1-2)Man(a1-6)]Man(b1-4)GlcNAc(b1-4)[Fuc(a1-6)]GlcNAc
# Method in brief: (§1)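 Glycan array data were curated from 3228 arrays in the Consortium for Functional Glycomics database and kept only where the protein sequence was available. Glycan names were converted to IUPAC-condensed notation, and columns mapping to the same glycan were averaged. The binding signal is a within-array Z-score, averaged across arrays of the same protein sequence at different concentrations or buffers and across linkers. Negative Z-scores can be read as non-binding.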
# [2] = molecular target: GlcNAc(b1-3)Gal(b1-4)GlcNAc(b1-3)Gal(b1-4)GlcNAc(b1-2)[GlcNAc(b1-3)Gal(b1-4)GlcNAc(b1-3)Gal(b1-4)GlcNAc(b1-6)]Man(a1-6)[GlcNAc(b1-3)Gal(b1-4)GlcNAc(b1-3)Gal(b1-4)GlcNAc(b1-2)Man(a1-3)]Man(b1-4)GlcNAc(b1-4)[Fuc(a1-6)]GlcNAc
# Method in brief: as §1
# [3] = molecular target: GlcNAc(b1-3)Gal(b1-4)GlcNAc(b1-3)Gal(b1-4)GlcNAc(b1-3)Gal(b1-4)GlcNAc(b1-2)Man(a1-3)[GlcNAc(b1-3)Gal(b1-4)GlcNAc(b1-3)Gal(b1-4)GlcNAc(b1-3)Gal(b1-4)GlcNAc(b1-2)Man(a1-6)]Man(b1-4)GlcNAc(b1-4)GlcNAc
# Method in brief: as §1
# [4] = molecular target: GlcNAc(b1-3)Gal(b1-4)GlcNAc(b1-3)Gal(b1-4)GlcNAc(b1-3)Gal(b1-4)GlcNAc(b1-2)Man(a1-3)[GlcNAc(b1-3)Gal(b1-4)GlcNAc(b1-3)Gal(b1-4)GlcNAc(b1-3)Gal(b1-4)GlcNAc(b1-2)Man(a1-6)]Man(b1-4)GlcNAc(b1-4)[Fuc(a1-6)]GlcNAc
# Method in brief: as §1
# [5] = molecular target: GlcNAc(b1-3)Gal(b1-4)GlcNAc(b1-3)Gal(b1-4)GlcNAc(b1-3)Gal(b1-4)GlcNAc(b1-2)[GlcNAc(b1-3)Gal(b1-4)GlcNAc(b1-3)Gal(b1-4)GlcNAc(b1-3)Gal(b1-4)GlcNAc(b1-6)]Man(a1-6)[GlcNAc(b1-3)Gal(b1-4)GlcNAc(b1-3)Gal(b1-4)GlcNAc(b1-3)Gal(b1-4)GlcNAc(b1-2)Man(a1-3)]Man(b1-4)GlcNAc(b1-4)[Fuc(a1-6)]GlcNAc
# Method in brief: as §1
# [6] = molecular target: GlcNAc(b1-3)Gal(b1-4)GlcNAc(b1-3)Gal(b1-4)GlcNAc(b1-3)Gal(b1-4)GlcNAc(b1-3)Gal(b1-4)GlcNAc(b1-2)Man(a1-3)[GlcNAc(b1-3)Gal(b1-4)GlcNAc(b1-3)Gal(b1-4)GlcNAc(b1-3)Gal(b1-4)GlcNAc(b1-3)Gal(b1-4)GlcNAc(b1-2)Man(a1-6)]Man(b1-4)GlcNAc(b1-4)GlcNAc
# Method in brief: as §1
# [7] = molecular target: GlcNAc(b1-3)Gal(b1-4)GlcNAc(b1-3)Gal(b1-4)GlcNAc(b1-3)Gal(b1-4)GlcNAc(b1-3)Gal(b1-4)GlcNAc(b1-2)Man(a1-3)[GlcNAc(b1-3)Gal(b1-4)GlcNAc(b1-3)Gal(b1-4)GlcNAc(b1-3)Gal(b1-4)GlcNAc(b1-3)Gal(b1-4)GlcNAc(b1-2)Man(a1-6)]Man(b1-4)GlcNAc(b1-4)[Fuc(a1-6)]GlcNAc
# Method in brief: as §1
# [8] = molecular target: GlcNAc(b1-3)Gal(b1-4)GlcNAc(b1-3)Gal(b1-4)GlcNAc(b1-3)Gal(b1-4)GlcNAc(b1-3)Gal(b1-4)GlcNAc(b1-2)[GlcNAc(b1-3)Gal(b1-4)GlcNAc(b1-3)Gal(b1-4)GlcNAc(b1-3)Gal(b1-4)GlcNAc(b1-3)Gal(b1-4)GlcNAc(b1-6)]Man(a1-6)[GlcNAc(b1-3)Gal(b1-4)GlcNAc(b1-3)Gal(b1-4)GlcNAc(b1-3)Gal(b1-4)GlcNAc(b1-3)Gal(b1-4)GlcNAc(b1-2)Man(a1-3)]Man(b1-4)GlcNAc(b1-4)[Fuc(a1-6)]GlcNAc
# Method in brief: as §1
# [9] = molecular target: GlcNAc(b1-3)Gal(b1-4)GlcNAc(b1-3)Gal(b1-4)GlcNAc(b1-3)GalNAc
# Method in brief: as §1
# [10] = molecular target: GlcNAc(b1-3)Gal(b1-4)GlcNAc(b1-3)GalNAc
# Method in brief: as §1
# [11] = molecular target: GlcNAc(b1-3)Gal(b1-4)GlcNAc(b1-3)[GlcNAc(b1-3)Gal(b1-4)GlcNAc(b1-3)]GalNAc
# Method in brief: as §1
# [12] = molecular target: GlcNAc(b1-3)Gal(b1-4)GlcNAc(b1-6)[Gal(b1-3)]GalNAc
# Method in brief: as §1
# [13] = molecular target: GlcNAc(b1-3)Gal(b1-4)GlcNAc(b1-6)[GlcNAc(b1-3)Gal(b1-3)]GalNAc
# Method in brief: as §1
# [14] = molecular target: GlcNAc(b1-3)Gal(b1-4)GlcNAc(b1-6)[GlcNAc(b1-3)]Gal(b1-4)GlcNAc
# Method in brief: as §1
# GlcNAc(b1-3)GalNAc = molecular target: GlcNAc(b1-3)GalNAc
# Method in brief: as §1
# GlcNAc(b1-3)Man = molecular target: GlcNAc(b1-3)Man
# Method in brief: as §1
# [15] = molecular target: GlcNAc(b1-3)[GlcNAc(b1-4)][GlcNAc(b1-6)]GlcNAc
# Method in brief: as §1
# [16] = molecular target: GlcNAc(b1-3)[GlcNAc(b1-6)]Gal(b1-4)GlcNAc
# Method in brief: as §1
# [17] = molecular target: GlcNAc(b1-3)[GlcNAc(b1-6)]GalNAc
# Method in brief: as §1
# [18] = molecular target: GlcNAc(b1-4)Gal(b1-4)GlcNAc
# Method in brief: as §1
# GlcNAc(b1-4)GlcNAc = molecular target: GlcNAc(b1-4)GlcNAc
# Method in brief: as §1
# [19] = molecular target: GlcNAc(b1-4)GlcNAc(b1-4)GlcNAc
# Method in brief: as §1
# [20] = molecular target: GlcNAc(b1-4)GlcNAc(b1-4)GlcNAc(b1-4)GlcNAc(b1-4)GlcNAc
# Method in brief: as §1
binder,measurement,setting,value
B1,glycan array binding signal (z-score),[1],0.888
same,glycan array binding signal (z-score),[2],0.109
same,glycan array binding signal (z-score),[3],-0.576
same,glycan array binding signal (z-score),[4],2.1
same,glycan array binding signal (z-score),[5],-0.662
same,glycan array binding signal (z-score),[6],-0.305
same,glycan array binding signal (z-score),[7],-0.013
same,glycan array binding signal (z-score),[8],0.126
same,glycan array binding signal (z-score),[9],-0.583
same,glycan array binding signal (z-score),[10],-0.709
same,glycan array binding signal (z-score),[11],-0.239
same,glycan array binding signal (z-score),[12],0.055
same,glycan array binding signal (z-score),[13],0.079
same,glycan array binding signal (z-score),[14],-0.229
same,glycan array binding signal (z-score),GlcNAc(b1-3)GalNAc,-0.194
same,glycan array binding signal (z-score),GlcNAc(b1-3)Man,-0.123
same,glycan array binding signal (z-score),[15],-0.668
same,glycan array binding signal (z-score),[16],-0.714
same,glycan array binding signal (z-score),[17],-0.503
same,glycan array binding signal (z-score),[18],-0.457
same,glycan array binding signal (z-score),GlcNAc(b1-4)GlcNAc,-0.362
same,glycan array binding signal (z-score),[19],-0.09
same,glycan array binding signal (z-score),[20],-0.406
